Data reported in the supplement of paper PMC8728848.
Some of the results follow.

Legend:
Assay in all cases: glycan array binding signal (z-score within array); higher = stronger binding
Conditions in all cases: glycan notation: IUPAC condensed, linker removed
Gal(a1-3)GalNAc = target: Gal(a1-3)GalNAc
Summary of the method: (§1)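 The binding signal is a Z-score computed within each array and averaged over linkers. Arrays of the same protein sequence at different concentrations or buffers were also averaged together. Data originate from 3228 arrays in the Consortium for Functional Glycomics database, kept only where the protein sequence was available.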

[1] = target: Gal(a1-3)[Gal(a1-4)]Gal(b1-4)GlcNAc
Summary of the method: as §1

[2] = target: Gal(a1-4)Gal(b1-3)GlcNAc(b1-2)Man(a1-3)[Gal(a1-4)Gal(b1-3)GlcNAc(b1-2)Man(a1-6)]Man(b1-4)GlcNAc(b1-4)GlcNAc
Summary of the method: as §1

Gal(a1-4)Gal(b1-4)Glc = target: Gal(a1-4)Gal(b1-4)Glc
Summary of the method: as §1

Gal(a1-4)Gal(b1-4)GlcNAc = target: Gal(a1-4)Gal(b1-4)GlcNAc
Summary of the method: as §1

[3] = target: Gal(a1-4)Gal(b1-4)GlcNAc(b1-2)Man(a1-3)[Gal(a1-4)Gal(b1-4)GlcNAc(b1-2)Man(a1-6)]Man(b1-4)GlcNAc(b1-4)GlcNAc
Summary of the method: as §1

[4] = target: Gal(a1-4)Gal(b1-4)GlcNAc(b1-3)Gal(b1-4)Glc
Summary of the method: as §1

Gal(a1-4)GlcNAc = target: Gal(a1-4)GlcNAc
Summary of the method: as §1

Gal(a1-6)Glc = target: Gal(a1-6)Glc
Summary of the method: as §1

Gal(b1-2)Gal = target: Gal(b1-2)Gal
Summary of the method: as §1

Gal(b1-3)Gal = target: Gal(b1-3)Gal
Summary of the method: as §1

Gal(b1-3)Gal(b1-4)GlcNAc = target: Gal(b1-3)Gal(b1-4)GlcNAc
Summary of the method: as §1

Gal(b1-3)GalNAc = target: Gal(b1-3)GalNAc
Summary of the method: as §1

[5] = target: Gal(b1-3)GalNAc(a1-3)[Fuc(a1-2)]Gal(b1-4)Glc
Summary of the method: as §1

[6] = target: Gal(b1-3)GalNAc(a1-3)[Fuc(a1-2)]Gal(b1-4)GlcNAc
Summary of the method: as §1

Gal(b1-3)GalNAc(b1-3)Gal = target: Gal(b1-3)GalNAc(b1-3)Gal
Summary of the method: as §1

[7] = target: Gal(b1-3)GalNAc(b1-3)Gal(a1-4)Gal(b1-4)Glc
Summary of the method: as §1

[8] = target: Gal(b1-3)GalNAc(b1-4)Gal(b1-4)Glc
Summary of the method: as §1

[9] = target: Gal(b1-3)GalNAc(b1-4)[Neu5Ac(a2-3)]Gal(b1-4)Glc
Summary of the method: as §1

Gal(b1-3)GlcNAc = target: Gal(b1-3)GlcNAc
Summary of the method: as §1

[10] = target: Gal(b1-3)GlcNAc(a1-3)Gal(b1-4)GlcNAc
Summary of the method: as §1

[11] = target: Gal(b1-3)GlcNAc(a1-6)Gal(b1-4)GlcNAc
Summary of the method: as §1

Gal(b1-3)GlcNAc(b1-2)Man = target: Gal(b1-3)GlcNAc(b1-2)Man
Summary of the method: as §1

[12] = target: Gal(b1-3)GlcNAc(b1-2)Man(a1-3)[Gal(b1-3)GlcNAc(b1-2)Man(a1-6)]Man(b1-4)GlcNAc(b1-4)GlcNAc
Summary of the method: as §1

[13] = target: Gal(b1-3)GlcNAc(b1-2)Man(a1-3)[Gal(b1-3)GlcNAc(b1-2)Man(a1-6)]Man(b1-4)GlcNAc(b1-4)[Fuc(a1-6)]GlcNAc
Summary of the method: as §1

[14] = target: Gal(b1-3)GlcNAc(b1-2)Man(a1-3)[GlcNAc(b1-4)][Gal(b1-3)GlcNAc(b1-2)Man(a1-6)]Man(b1-4)GlcNAc(b1-4)GlcNAc
Summary of the method: as §1

[15] = target: Gal(b1-3)GlcNAc(b1-2)[Gal(b1-3)GlcNAc(b1-6)]Man(a1-6)[Gal(b1-3)GlcNAc(b1-2)Man(a1-3)]Man(b1-4)GlcNAc(b1-4)GlcNAc
Summary of the method: as §1

[16] = target: Gal(b1-3)GlcNAc(b1-3)Gal(b1-3)GlcNAc
Summary of the method: as §1

[17] = target: Gal(b1-3)GlcNAc(b1-3)Gal(b1-4)Glc
Summary of the method: as §1

[18] = target: Gal(b1-3)GlcNAc(b1-3)Gal(b1-4)GlcNAc
Summary of the method: as §1

[19] = target: Gal(b1-3)GlcNAc(b1-3)Gal(b1-4)GlcNAc(b1-2)Man(a1-3)[Gal(b1-3)GlcNAc(b1-3)Gal(b1-4)GlcNAc(b1-2)Man(a1-6)]Man(b1-4)GlcNAc(b1-4)GlcNAc
Summary of the method: as §1

[20] = target: Gal(b1-3)GlcNAc(b1-3)Gal(b1-4)GlcNAc(b1-2)[Gal(b1-3)GlcNAc(b1-3)Gal(b1-4)GlcNAc(b1-6)]Man(a1-6)[Gal(b1-3)GlcNAc(b1-3)Gal(b1-4)GlcNAc(b1-2)Man(a1-3)]Man(b1-4)GlcNAc(b1-4)[Fuc(a1-6)]GlcNAc
Summary of the method: as §1

[21] = target: Gal(b1-3)GlcNAc(b1-3)Gal(b1-4)GlcNAc(b1-3)Gal(b1-4)GlcNAc(b1-2)[Gal(b1-3)GlcNAc(b1-3)Gal(b1-4)GlcNAc(b1-3)Gal(b1-4)GlcNAc(b1-6)]Man(a1-6)[Gal(b1-3)GlcNAc(b1-3)Gal(b1-4)GlcNAc(b1-3)Gal(b1-4)GlcNAc(b1-2)Man(a1-3)]Man(b1-4)GlcNAc(b1-4)[Fuc(a1-6)]GlcNAc
Summary of the method: as §1

[22] = target: Gal(b1-3)GlcNAc(b1-3)Gal(b1-4)GlcNAc(b1-6)[Gal(b1-3)GlcNAc(b1-3)]Gal(b1-4)Glc
Summary of the method: as §1

[23] = target: Gal(b1-3)GlcNAc(b1-3)Gal(b1-4)[Fuc(a1-3)]GlcNAc
Summary of the method: as §1

[24] = target: Gal(b1-3)GlcNAc(b1-3)Gal(b1-4)[Fuc(a1-3)]GlcNAc(b1-6)[Gal(b1-3)GlcNAc(b1-3)]Gal(b1-4)Glc
Summary of the method: as §1

[25] = target: Gal(b1-3)GlcNAc(b1-3)GalNAc
Summary of the method: as §1

[26] = target: Gal(b1-3)GlcNAc(b1-6)Gal(b1-4)GlcNAc
Summary of the method: as §1

B1: Epa9 (Candida glabrata), CAGL0A01386g (protein)
chain: MGSSHHHHHHSSGLVPRGSHMDITPFAHYPRPEGCSSPPNAVSVGLHMDLYNYPYLYVKNPRTGFTNDTDSDADGETDGDSAGGIEGRAGQCWNPEYQDPNFPRYGYKKYGSFGSSDHVNGKISWDHNEFKEGCKPIMARLPTAYNYPAKITFSNFTMVLSGYFKPKSTGLYKFEIHADDFILFNFGSKNAFECCNREESIDNFGPYVAYAMWPNEADQELEVYLFEDSYYPIRLFYNNRDYHSKFMVGFYPPNTEEITYDFDGYLYMLDDTGNECKDSIRYKTVCDD
glycan array binding signal (z-score) (Gal(a1-3)GalNAc): 0.221
glycan array binding signal (z-score) [1]: 0.117
glycan array binding signal (z-score) [2]: 4.05
glycan array binding signal (z-score) (Gal(a1-4)Gal(b1-4)Glc): 0.815
glycan array binding signal (z-score) (Gal(a1-4)Gal(b1-4)GlcNAc): 1.71
glycan array binding signal (z-score) [3]: 3.16
glycan array binding signal (z-score) [4]: 1.88
glycan array binding signal (z-score) (Gal(a1-4)GlcNAc): 0.434
glycan array binding signal (z-score) (Gal(a1-6)Glc): 0.582
glycan array binding signal (z-score) (Gal(b1-2)Gal): 0.38
glycan array binding signal (z-score) (Gal(b1-3)Gal): 0.707
glycan array binding signal (z-score) (Gal(b1-3)Gal(b1-4)GlcNAc): 1.31
glycan array binding signal (z-score) (Gal(b1-3)GalNAc): 1.06
glycan array binding signal (z-score) [5]: 1.58
glycan array binding signal (z-score) [6]: 2.63
glycan array binding signal (z-score) (Gal(b1-3)GalNAc(b1-3)Gal): 2.25
glycan array binding signal (z-score) [7]: 1.98
glycan array binding signal (z-score) [8]: 4.13
glycan array binding signal (z-score) [9]: 1.98
glycan array binding signal (z-score) (Gal(b1-3)GlcNAc): -0.178
glycan array binding signal (z-score) [10]: -0.307
glycan array binding signal (z-score) [11]: 0.032
glycan array binding signal (z-score) (Gal(b1-3)GlcNAc(b1-2)Man): -0.191
glycan array binding signal (z-score) [12]: 0.269
glycan array binding signal (z-score) [13]: 0.01
glycan array binding signal (z-score) [14]: 0.211
glycan array binding signal (z-score) [15]: 0.074
glycan array binding signal (z-score) [16]: -0.11
glycan array binding signal (z-score) [17]: -0.173
glycan array binding signal (z-score) [18]: -0.175
glycan array binding signal (z-score) [19]: -0.137
glycan array binding signal (z-score) [20]: -0.027
glycan array binding signal (z-score) [21]: 0.598
glycan array binding signal (z-score) [22]: 0.703
glycan array binding signal (z-score) [23]: -0.34
glycan array binding signal (z-score) [24]: 0.241
glycan array binding signal (z-score) [25]: -0.282
glycan array binding signal (z-score) [26]: 0.901
